Experimental data taken from a collection of fitness landscapes (doi:10.1016/j.celrep.2020.107928).
Over roughly 81,000 sequences, “one-hybrid fitness for binding NBS DNA” has its median near -0.1; the highest 2% begin near 0.36. The list shows a part of the results.

B1: Caulobacter ParB omega fusion; a variant is named by its letters at X, in order, B8GW30 (parent)
chain: MESVVVGEPGMSEGRRGLGRGLSALLGEVDAAPAQAPGEQLGGSREAPIEILQRNPDQPRRTFREEDLEDLSNSIREKGVLQPILVRPSPDTAGEYQIVAGERAWRAAQRAGLKTVPIMVRELDDLAVLEIGIIENVQRADLNVLEEALSYKVLMEKFERTQENIAQTIGKSXSHVANXMRLLXLPDEVQSYLVSGELTAXHARAIAAAADPVALAKQIIEGGLSVRETEALARKAPNLSAGKSKGGRPPRVKDTDTQALESDLSSVLGLDVSIDHRGSTGTLTITYATLEQLDDLCNRLTRGI

Variants of: B1
Assay: one-hybrid fitness for binding NBS DNA (the Noc-binding site; scaled: cognate 1, non-cognate 0); higher = stronger binding
Conditions: with NBS DNA site
Outline: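 Bacterial one-hybrid selection in E. coli USO rpoZ- hisB- pyrF- with a HIS3 reporter carrying the site 19 bp from the promoter, screening Caulobacter ParB libraries with four specificity codons randomised (NNS). Cells grew 48 hours at 37°C on M9-minus-histidine plus 0.1 mM IPTG and 5 mM 3-AT. Plasmids before and after selection were Illumina-sequenced, three replicate libraries pooled, and variants under 10 reads dropped. Fitness is the log change in variant-to-wild-type read ratio, rescaled to cognate 1, non-cognate 0.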

one-hybrid fitness for binding NBS DNA, 0.324:
QVTT

one-hybrid fitness for binding NBS DNA, 0.499:
RTAT

one-hybrid fitness for binding NBS DNA, ≤ 0.2:
YAMT
GCGG
RFHN
LRWR
MLLG
LLEN
SFCV
CSWW
KTSC
CPKG
WSIQ
RFRM
TDWT
QKMK
TACQ
AILY
MRMY
AEEL
QTLC
RAGA
VDEG
TSRY
VPWM
TEMC
HDMS
KYMY
RADI
LQPG
CILV
SALQ
YLEN
GSAG
QLNE
AGRE
VRVV
GGPV
IGRM
HKNT
NIST
PHVW
AMRW
QANP
LHEN
TLNK
SCNG
VHVQ
SPET
TMAQ
TSPR
SPFD
CHPC
GTAH
QYNM
HAHL
SCQN
TKGM
WAQI
LLDH
FRIG
DRWC
HSYN
MSPY
TRAK
DIEI
KIAM
CMRE
SIDL
MIPC
PEVN
VCYR
CPTT
ISQT
KYKS
RGAE
HTSH
IQLC
RMQL
GDHV
IAFT
NIPM
HSFG
VMMR
VYSM
GEKL
YTGW
QYTK
SGHI
PKGE
VTMP
HFYC
TPDE
VHQG
KLHL
ISIV
ESLV
AYQS
SASF
NALL
ARST
LGRH
ASSV
YQSW
IYSC
RVCI
TYHE
HNNG
LCNV
VFET
KYTN
IKLG
LIPL
RNTW
RQIE
VWSS
DLLV
GNVG
HNGM
LQGV
RSDE
PLVI
CHKT
VPYI
AEER
DTVT
CFLM
SFIG
GTNC
CLAY
IVQG
KWER
MSMF
KPPV
RINV
NNPY
IIYG
LHKR
NPNS
GWGG
YSLN
TDSH
RSPI
RCSL
MRYG
IFTW
SPIW
SPNY
QYQC
HYRG
PQYR

one-hybrid fitness for binding NBS DNA, 0.571:
RTTR

one-hybrid fitness for binding NBS DNA, 0.543:
QKAT
